The full ranking holds about 5,400 compounds; the median of “IFI” is about 2, and the highest 2% start at about 22. The list shows a part of the results.

The values below come from ChEMBL document CHEMBL1156829.

This assay in a line: NOVARTIS: Inhibition Frequency Index (IFI) - the number of HTS assays where a compound showed > 50% inhibition/induction, expressed as a percentage of the number of assays in which the compound was tested. The format is functional.
`CCN1c2ccc([N+](=O)[O-])cc2N(CC)C1(C)c1ccccc1` (stereo not drawn): the IFI came out at 0%.
In the case of `CCc1ccc(C(=O)N(CCc2ccccc2)C(CC)c2nc3ccccc3c(=O)n2-c2ccccc2OC)cc1` (stereo not drawn), the IFI was 3.85%.
The same measure for `COc1cccc(CCOc2ccc3c(c2)C(=O)N(C(CC(C)C)C(=O)NC2CCN(Cc4ccccc4)CC2)[C@@H](Cc2ccc(O)cc2)C(=O)N3)c1` (stereo partly drawn): 4.72%; for `CCCC1=[N+](CC(=O)c2ccc(C)cc2)CCn2c(C)ccc21`: 5.75%.
`CC[n+]1cc(C)ccc1C=Cc1ccc(N(C)C)cc1` came in with an IFI of 7.69%.
`COc1cccc(C=NNC(=O)c2ccccc2O)c1O` registered an IFI of 7.69%.
For `N#Cc1ccc(NC(=O)CCCC(=O)O)cc1`, the IFI amounted to 2.54%.
In turn, `NCCCNc1ncc(C(=O)NCc2ccccc2)c(NCC2CCCCC2)n1` displayed an IFI of 1.94%.
`CCOc1ccc(Br)cc1/C=C1\SC(=Nc2ccccc2CC)N(c2ccccc2CC)C1=O`: the IFI turned out to be 0%.
The same measure for `CCCc1nc2ccc(NC(=O)c3ccccc3F)cc2c(=O)n1Cc1ccc(-c2ccccc2)cc1`: 7.27%; for `COc1ccccc1CN1CCC(S(=O)(=O)c2ccccc2)CC1`: 4.11%; for `O=[N+]([O-])c1cccc2c(S(=O)(=O)NCCCN(CCO)CCO)cccc12`: 0%.
The same measure for `Oc1ccc(-c2ccccn2)cc1CNC1CCN(Cc2ccccc2)CC1`: 0.855%; for `CCOC(=O)c1[nH]nc(C(=O)c2ccccc2)c1-c1ccccc1`: 1.83%; for `c1ccc(CCNc2ncnc3c2[nH]c2ccccc23)cc1`: 21.9%.
Compound `Cc1ccc(NC(=O)c2ccc(NCCCN3CC(C)CC(C)C3)c([N+](=O)[O-])c2)cc1F` (stereo not drawn) gave an IFI of 0%.
Compound `CCOc1cccc(Nc2cc(C)nc3ncnn23)c1` returned an IFI of 0%.
`Cc1cc(-c2cncnc2C2CCN(C(=O)c3cc(C(C)C)n[nH]3)CC2)on1` gave an IFI of 0%.
The same measure for `COC(=O)C1=CNC=C(C(=O)OC)C1c1ccc(Cl)c([N+](=O)[O-])c1`: 2.35%; for `Cc1cccc(C)c1NC(=O)C(O)c1ccc(Cl)cc1Cl` (stereo not drawn): 0%.
The same measure for `COc1ccc(-c2nc(CN3CCCCC3)ccc2O)cc1`: 0%; for `CCCCCCc1ccc(C(=O)N(C)CCCNc2ccnc3cc(Cl)ccc23)cc1`: 4.21%; for `COc1cc(C2Nc3ccc4ccccc4c3C3=C2C(=O)CC(C)(C)C3)ccc1Oc1ccc([N+](=O)[O-])cc1C(F)(F)F` (stereo not drawn): 0%.
The same measure for `COc1cc(CN(C)c2ccc3nc(N)nc(N)c3c2)cc(OC)c1OC`: 15.4%; for `C=C(C[N+](C)(C)C)c1ccc([N+](=O)[O-])cc1`: 0.746%; for `CCC(CC)C(=O)Nc1c2c(nn1-c1cccc(Cl)c1)C[S+]([O-])C2` (stereo not drawn): 0%.
On to `COc1ccc(OCC(=O)Nc2c(C)n(C)n(-c3ccccc3)c2=O)cc1`, for which the IFI was found to be 0%.
Consider `Cc1oc2c(c1C(=O)N1CCC(C)CC1)C(=O)c1ccccc1C2=O`, for which the IFI was 15.4%.
